Results as given in PubChem BioAssay (NCATS).
The shares of active, inactive and inconclusive entries below differ from those in the screen. Potencies beside an inconclusive call are fits to weak or partial responses and may not hold up. Activity calls are given as the source filed them. The call rests on the fitted dose curve; in most records, active means well fitted cell-killing curve with a large enough effect; inconclusive means small, poorly fitted or top-dose-only effect, or effect the other way; inactive means flat fitted curve, though single readings scatter.

system: JEG-3; test: Primary qHTS to identify gynecologic anti-cancer compounds using libraries of approved drugs and bioactive compounds (AID 1345084); conditions: Gynecologic cancer cell panel viability, ATPlite luminescence, 48 h; series mostly up to 57.5 µM; activity change, negative = cytotoxicity: at the top concentration; further: nearly all actives have a fitted effect of over 55% in size
How it was run: (§1)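 Luminescence from the ATPlite ATP-monitoring reagent indicates viable cell number; lower signal means cytotoxicity. Cells received compound 16 h after seeding and were exposed for 48 h across five concentrations.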
On the % scale 0 is the no-effect control and ±100 the full control effect; potency means the concentration at half of the fitted maximal effect; tags describe the fitted curve by direction and shape.

SMILES | activity change, negative = cytotoxicity | Potency
COc1cc(O)c2c(c1)/C=C/C[C@@H](O)[C@@H](O)C(=O)CCC[C@H](C)OC2=O | inactive: -3.91% [at 38.5 µM] | 
CCOc1ccccc1-n1c(C(C)N2CCN(C(=O)COc3ccc(Cl)cc3)CC2)nc2ccccc2c1=O (centres undefined) |  | inconclusive: 28.2 µM [cytotoxic, single point]
CC(C)[C@H]1OC(=O)[C@H](Cc2ccccc2)N(C)C(=O)[C@@H](C(C)C)OC(=O)[C@H](Cc2ccccc2)N(C)C(=O)[C@@H](C(C)C)OC(=O)[C@H](Cc2ccccc2)N(C)C1=O | inactive: 4.73% [at 25.3 µM] | 

system: OV90; test: as above; conditions: Gynecologic cancer cell panel viability, ATPlite luminescence, 48 h; series mostly up to 57.5 µM; activity change, negative = cytotoxicity: at the top concentration
How it was run: as §1

SMILES | Potency | activity change, negative = cytotoxicity
C[C@]12CC[C@H](O)CC1=CC[C@@H]1[C@@H]2CC[C@]2(C)C(=O)CC[C@@H]12 | inactive | 
C[C@H](Nc1ncnc2nc[nH]c12)c1nc2ccc(F)cc2c(=O)n1-c1ccccc1 |  | inactive: -30.3%
O=C(N1CCCCC1Cc1ccccc1)n1cc(-c2ccc(-c3ccccc3)cc2)nn1 (centres undefined) |  | inactive: 1.35%
C=C1C(=O)OC2/C=C(\COO)CC/C=C(\COC(C)=O)CC(OC(=O)C(C)CC)C12 (centres undefined) | inconclusive: 20 µM [cytotoxic, single point] | 
Cc1cc(C(=O)CN2CCCC2)c(C)n1-c1ccc(F)cc1 | inactive | 
O=C(NCCN1CCC2(CC1)C(=O)NCN2c1cccc(F)c1)c1ccc(F)c(F)c1 |  | inactive: -26.8%
